The source of these data is publication PMC4336329 (PLoS ONE, 2015).

The campaign covered roughly 310,000 compounds. About 14,000 (4.5%) showed an effect of 50% or more. The effect is printed as a negative number. Some of the results follow.
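Also: peak tail current of the secondary pulse compared with the same well before compound.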

Chain of human ether-à-go-go-related gene (hERG) potassium channel (Q12809 whole entry, looked up): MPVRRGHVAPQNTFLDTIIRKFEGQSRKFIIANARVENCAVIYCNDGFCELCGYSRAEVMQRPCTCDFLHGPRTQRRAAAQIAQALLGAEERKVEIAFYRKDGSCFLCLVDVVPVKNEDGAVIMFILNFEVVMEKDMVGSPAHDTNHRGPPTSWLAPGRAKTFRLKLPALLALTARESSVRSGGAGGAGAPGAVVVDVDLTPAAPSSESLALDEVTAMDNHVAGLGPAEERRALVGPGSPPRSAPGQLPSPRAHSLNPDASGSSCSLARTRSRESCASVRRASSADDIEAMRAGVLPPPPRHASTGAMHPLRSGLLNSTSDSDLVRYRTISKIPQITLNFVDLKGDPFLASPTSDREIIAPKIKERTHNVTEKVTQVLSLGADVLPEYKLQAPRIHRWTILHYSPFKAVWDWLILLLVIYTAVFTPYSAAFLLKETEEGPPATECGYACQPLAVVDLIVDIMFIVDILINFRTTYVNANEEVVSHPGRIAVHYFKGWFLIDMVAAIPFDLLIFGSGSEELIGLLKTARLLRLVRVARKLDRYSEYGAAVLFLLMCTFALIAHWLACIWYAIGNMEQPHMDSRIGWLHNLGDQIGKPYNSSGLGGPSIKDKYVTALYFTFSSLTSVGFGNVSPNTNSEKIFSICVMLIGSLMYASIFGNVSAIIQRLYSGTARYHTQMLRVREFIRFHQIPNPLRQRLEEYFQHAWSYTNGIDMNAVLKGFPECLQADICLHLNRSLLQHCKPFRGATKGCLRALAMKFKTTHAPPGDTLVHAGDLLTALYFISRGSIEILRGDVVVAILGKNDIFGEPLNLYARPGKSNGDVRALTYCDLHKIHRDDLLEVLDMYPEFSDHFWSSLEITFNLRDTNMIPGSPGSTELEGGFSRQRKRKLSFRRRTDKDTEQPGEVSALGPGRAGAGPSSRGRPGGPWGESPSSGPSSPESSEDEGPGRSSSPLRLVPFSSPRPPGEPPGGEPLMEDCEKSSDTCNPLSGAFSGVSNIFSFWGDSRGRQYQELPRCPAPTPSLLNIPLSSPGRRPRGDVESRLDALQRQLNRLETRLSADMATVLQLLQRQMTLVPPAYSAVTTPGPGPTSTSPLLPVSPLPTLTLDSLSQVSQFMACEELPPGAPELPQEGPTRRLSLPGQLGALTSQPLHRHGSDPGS

This experiment addresses human ether-à-go-go-related gene (hERG) potassium channel (human, UniProt Q12809). Nature of the experiment: primary screen, population patch clamp on CHO cells stably expressing hERG.
As to `O=C(O)c1c(C(=O)N2N=C3/C(=C/c4ccccc4)CCCC3C2c2ccccc2)cccc1[N+](=O)[O-]` (centres unmarked), the “hERG current change (%, negative = inhibition) at 10uM” value is on record as 10.6%.

Turning to `COc1ccc(-c2cc(C(=O)Nc3cc(C)n(Cc4ccc(Cl)cc4)n3)no2)cc1OC`, the “hERG current change (%, negative = inhibition) at 10uM” value is on record as -9.8%.

As to `O=[N+]([O-])c1cccc(C=Nc2cc3c(cc2Br)OCCO3)c1`, the “hERG current change (%, negative = inhibition) at 10uM” value is on record as 8.6%.

As to `CCOC(=O)C1=C(c2ccccc2)NC(=O)NC1c1ccc(OCC#N)c(OC)c1` (centres unmarked), the “hERG current change (%, negative = inhibition) at 10uM” value was -0.477%.

Turning to `Cc1ccc(S(=O)(=O)N2CCOCC2)cc1C(=O)Nc1cccc(C(=O)NC2CC2)c1`, the “hERG current change (%, negative = inhibition) at 10uM” value was -3.11%.

`O=S(=O)(NCC1CCCO1)c1ccc(NS(=O)(=O)c2ccc(F)cc2)cc1` (centres unmarked): the “hERG current change (%, negative = inhibition) at 10uM” value is recorded as 14.6%.

For `COCCNc1nc2nonc2nc1NC(C)c1ccccc1Cl` (centres unmarked), the “hERG current change (%, negative = inhibition) at 10uM” value is recorded as 13.3%.

As for `CC1C(=O)Nc2ccccc2N1C(=O)c1ccc(F)cc1` (centres unmarked), the “hERG current change (%, negative = inhibition) at 10uM” value is 15.7%.

Turning to `O=C(O)CCC(=O)N1CCN(c2nc(-c3ccccc3)c3ccccc3n2)CC1`, the “hERG current change (%, negative = inhibition) at 10uM” value is recorded as 13.7%.

With `COc1ccccc1N1C(=O)C2C3C=CC(C3)C2(C)C1=O` (centres unmarked), the “hERG current change (%, negative = inhibition) at 10uM” value was 7.91%.

As for `Cn1cnnc1SCC(=O)Nc1c(F)cc(F)cc1Br`, the “hERG current change (%, negative = inhibition) at 10uM” value was 10.9%.

On to `CCc1nnc(NC(=O)CSc2nc(-c3ccccc3)c(-c3ccccc3)o2)s1`, for which the “hERG current change (%, negative = inhibition) at 10uM” value worked out at 5.01%.

Regarding `CC(C)[C@H](NC(=O)[C@@H]1CSCN1C(=O)OC(C)(C)C)C(=O)NCC1CCC(C(=O)O)CC1` (some centres unmarked), the “hERG current change (%, negative = inhibition) at 10uM” value amounted to 10.2%.

Consider `Cn1c(=O)[nH]c(=O)c2c1nc(Br)n2CC(O)COCc1ccccc1` (centres unmarked), for which the “hERG current change (%, negative = inhibition) at 10uM” value is -2.34%.

Take `CCc1ccccc1NC(=O)C(CC)Sc1nc2cc3c(cc2c(=O)n1Cc1ccco1)OCO3` (centres unmarked): the “hERG current change (%, negative = inhibition) at 10uM” value was 17.1%.

For `CCOc1ncccc1C(=O)NCc1ccc(C)cc1`, the “hERG current change (%, negative = inhibition) at 10uM” value is -3.68%.

Take `Cc1ccccc1NC(=O)Cc1nc(COC(=O)c2ccc(C(F)(F)F)cc2)cs1`: the “hERG current change (%, negative = inhibition) at 10uM” value was determined as 5.88%.

`COCCCNC(=O)CNC(=S)N(Cc1ccc(F)cc1)C1CCCCC1`: the “hERG current change (%, negative = inhibition) at 10uM” value is recorded as -8.59%.

Turning to `CC1(C)C(=O)OC(c2cccn2-c2cccc([N+](=O)[O-])c2)C2(CCCCC2)C1=O` (centres unmarked), the “hERG current change (%, negative = inhibition) at 10uM” value is recorded as -18.3%.

Regarding `CCOc1ccc(-c2nnn(CC(=O)Nc3ccccc3OC)n2)cc1OCC`, the “hERG current change (%, negative = inhibition) at 10uM” value is 3.2%.

As for `Cn1c(N2CCN(C(c3ccccc3)c3ccccc3)CC2)nc2ccccc21`, the “hERG current change (%, negative = inhibition) at 10uM” value is reported as -51.7%.

Turning to `Cc1cccc(NC(=O)CSc2nc3ccccc3nc2N2CCCC2)c1`, the “hERG current change (%, negative = inhibition) at 10uM” value is 1.02%.

`Cc1ccc(S(=O)(=O)N2CCC(C(=O)NNS(=O)(=O)c3ccc(Cl)cc3)CC2)cc1`: the “hERG current change (%, negative = inhibition) at 10uM” value is -0.444%.

As to `Cc1ccccc1CC1(CO)CCCN(C(=O)c2cccc(Cl)c2)C1` (centres unmarked), the “hERG current change (%, negative = inhibition) at 10uM” value is 1.01%.

In the case of `Cc1ccccc1CCN1CCCC(CN(C)C(=O)c2ccc3ncccc3c2)C1` (centres unmarked), the “hERG current change (%, negative = inhibition) at 10uM” value was -30.3%.

As for `CCCCCOC(=O)Cn1c(=O)oc2ccccc21`, the “hERG current change (%, negative = inhibition) at 10uM” value came to 0.0173%.

In the case of `Cc1ccc(S(=O)(=O)N2CCCOC2CNC(=O)C(=O)NCCN2CCOCC2)cc1` (centres unmarked), the “hERG current change (%, negative = inhibition) at 10uM” value was 20.6%.

With `CCCC1Cc2c(sc(NC(=S)NC(=O)c3ccccc3)c2C#N)CO1` (centres unmarked), the “hERG current change (%, negative = inhibition) at 10uM” value is on record as -3.63%.

`Cc1oc(-c2ccccc2)[n+]([O-])c1C.Cl`: the “hERG current change (%, negative = inhibition) at 10uM” value is recorded as 9.51%.

For the compound `CCc1nc(SCC(=O)OC)c2c3c(sc2n1)COC(C)(C)C3`, the “hERG current change (%, negative = inhibition) at 10uM” value was 12%.

Consider `COC(=O)/C(=C/c1c[nH]c2ccccc12)[N+](=O)[O-]`, for which the “hERG current change (%, negative = inhibition) at 10uM” value is reported as 16.7%.

As for `CCN(CC)S(=O)(=O)c1cc(NC(=O)COC(=O)c2c(C)noc2C)ccc1C`, the “hERG current change (%, negative = inhibition) at 10uM” value is -30.6%.

With `CCC(=O)N1CCc2cc(S(=O)(=O)NCCc3ccc(S(N)(=O)=O)cc3)ccc21`, the “hERG current change (%, negative = inhibition) at 10uM” value came out at 24.9%.

For `CCCN(Cc1cc2ccc(C)cc2[nH]c1=O)C(=O)c1cccnc1`, the “hERG current change (%, negative = inhibition) at 10uM” value was -36.1%.

Consider `O=c1[nH]cc(NCCNc2ncc(C(F)(F)F)cc2Cl)c(=O)[nH]1`, for which the “hERG current change (%, negative = inhibition) at 10uM” value is recorded as 3.6%.

As to `COc1ccc(C(=O)Nc2ccccc2N2CCN(C(=O)c3ccccc3)CC2)cc1Br`, the “hERG current change (%, negative = inhibition) at 10uM” value is listed as -8.68%.

Consider `CCCn1c(SCc2nc3sc(C)c(C)c3c(=O)[nH]2)nc2ccccc2c1=O`, for which the “hERG current change (%, negative = inhibition) at 10uM” value is on record as 5.75%.

As for `CCOC(=O)c1cn(Cc2ccccc2)nn1`, the “hERG current change (%, negative = inhibition) at 10uM” value is recorded as 13.2%.

For the compound `Cc1ccc(NC(=O)Cn2ccsc2=N)c([N+](=O)[O-])c1.Cl`, the “hERG current change (%, negative = inhibition) at 10uM” value stood at 35.1%.

For the compound `CCCn1c(SCC(=O)Nc2nc(C)cs2)nnc1-c1cccnc1`, the “hERG current change (%, negative = inhibition) at 10uM” value was -29.1%.

For the compound `COc1ccccc1CNC(=O)c1cn(C)c2ccc(S(=O)(=O)N3CCCC3)cc2c1=O`, the “hERG current change (%, negative = inhibition) at 10uM” value is listed as -7.92%.

With `CC(C)C(=O)Nc1c(-c2ccc(Cl)cc2)c(=O)c2ccccc2n1C`, the “hERG current change (%, negative = inhibition) at 10uM” value is listed as 20.9%.

For the compound `COCCn1c(SCC(=O)N2CCCC2)nnc1C(C)C`, the “hERG current change (%, negative = inhibition) at 10uM” value amounted to 9.33%.

As to `COC(=O)c1[nH]c2cccc(C)c2c1NC(=O)CN1CCN(c2ccccc2OC)CC1`, the “hERG current change (%, negative = inhibition) at 10uM” value is given as -5.06%.
